Test results published in PubChem BioAssay (NCATS).
Values joined by “and” are separate entries in the source; they are usually repeats but may differ in a detail not shown here. Identical values can stand only once. The inconclusive results got no clear call from the source; some entries with a clear call stand among them for comparison. For some assays here: A potency beside an inconclusive call is a rough fit, not a confirmed value. Active and inactive are the calls of the source. Unless noted, calls come from the whole dose curve; as a rule, active = well fitted curve in the direction sought with a large enough effect; inconclusive = small, poorly fitted or top-dose-only effect, or another doubt; inactive = no such curve, though single readings can be large; an effect the other way counts as inactive or inconclusive.

Tests used:
[1] = target: Cytochrome P450 2C9 (Homo sapiens) (UniProt P11712); test: Cytochrome P450 family 2 subfamily C member 9 (CYP2C9) small molecule antagonists: luciferase biochemical (cell-free) qHTS assay (AID 1645842; active = well fitted curve in the direction sought with a large enough effect in the repeat runs; inconclusive = weak or mixed curves; inactive = no such curve, though single readings can be large; an effect the other way counts as inactive or inconclusive; note: nearly all actives have a fitted effect of over 55% in size; note: potency is the fitted concentration of half-maximal effect); settings: P450-Glo CYP2C9 enzyme assay, luciferin luminescence; series mostly up to 57.4 µM
Procedure, shortened: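 Luminescence, after 20 min with luciferin detection reagent, reflected CYP2C9 turnover during a 1 h NADPH-driven reaction at 37C. Enzyme-substrate mix contained 0.4% bovine serum albumin and was preincubated with compound 10 min at room temperature.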

[2] = Primary redox qHTS assay for identification of artifact compounds. (AID 1845223); settings: Amplex Red/HRP redox cycling with DTT, fluorescence; series mostly up to 53.8 µM; note: potency is the fitted concentration of half-maximal effect
Procedure, shortened: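 Amplex Red (25 uM) and HRP (250 mU/mL) in HBSS, with compounds for 15 min, then 250 uM DTT for 30 min, room temperature, dark. Fluorescence 525/598 nm read; normalized to DMSO and 10 uM DA3003; Hill fit.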

[3] = system: Tov112D; test: Primary qHTS to identify gynecologic anti-cancer compounds using libraries of approved drugs and bioactive compounds (AID 1345084); settings: Gynecologic cancer cell panel viability, ATPlite luminescence, 48 h; activity change, negative = cytotoxicity: at 57.5 µM (top of the series); note: nearly all actives have a fitted effect of over 55% in size; note: potency is the fitted concentration of half-maximal effect; for activity change, negative = cytotoxicity: % is set by controls: 0 for no effect and ±100 for the full control effect
Procedure, shortened: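 Five-concentration response, 48 h; readout is ATP-driven luciferase luminescence.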

[4] = qHTS of pediatric cancer cell lines to identify multiple opportunities for drug repurposing: Primary screen for SK-N-MC cells (AID 1347093); settings: SK-N-MC viability, CellTiter-Glo luminescence, 48 h; activity change, negative = cytotoxic: at 46 µM (top of the series); note: potency is the fitted concentration of half-maximal effect
Procedure, shortened: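 Metabolically active cells were quantified by ATP-dependent luminescence (CellTiter-Glo, 15 min at room temperature) following 48 h treatment. Cells had been plated at 500-1,000 per well and settled for 5 h beforehand.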

[5] = qHTS of pediatric cancer cell lines to identify multiple opportunities for drug repurposing: Primary screen for Saos-2 cells (AID 1347097); settings: Saos-2 viability, CellTiter-Glo ATP luminescence, 48 h; activity change, negative = cytotoxic: at 46 µM (top of the series); note: nearly all actives have a fitted effect of over 40% in size; note: potency is the fitted concentration of half-maximal effect; for activity change, negative = cytotoxic: % is set by controls: 0 for no effect and ±100 for the full control effect
Procedure, shortened: (§1)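 ATP-based luminescence (CellTiter-Glo) quantifies viability after a 48-hour exposure. Compounds are dosed across 8 or 11 final concentrations; DMSO and 2.3 µM bortezomib serve as controls.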

[6] = qHTS of pediatric cancer cell lines to identify multiple opportunities for drug repurposing: Primary screen for SK-N-SH cells (AID 1347098); settings: SK-N-SH viability, CellTiter-Glo luminescence, 48 h; activity change, negative = cytotoxic: at 57 µM (top of the series); note: potency is the fitted concentration of half-maximal effect; nearly all actives have a fitted effect of over 65% in size
Procedure, shortened: (§2)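 Cells (500-1,000/well) rested 5 h, then received compounds for 48 h; metabolically active cells were measured by CellTiter-Glo luminescence. Final concentrations spanned up to 46 µM (MIPE, 11-point) or 0.59 nM-46 µM (NPC, 8-point) in primary screens, 11-point in follow-ups.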

[7] = qHTS of pediatric cancer cell lines to identify multiple opportunities for drug repurposing: Primary screen for OHS-50 cells (AID 1347103); settings: OHS-50 osteosarcoma viability, CellTiter-Glo luminescence, 48 h; series mostly up to 57.3 µM; note: potency is the fitted concentration of half-maximal effect; nearly all actives have a fitted effect of over 40% in size
Procedure, shortened: as §2

[8] = qHTS of pediatric cancer cell lines to identify multiple opportunities for drug repurposing: Primary screen for SJ-GBM2 cells (AID 1347091); settings: SJ-GBM2 viability, CellTiter-Glo luminescence, 48 h; series mostly up to 46 µM; note: potency is the fitted concentration of half-maximal effect
Procedure, shortened: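 Viability measured as metabolically active cells via CellTiter-Glo luminescence following 48 hours of compound exposure, 11-point dilutions in confirmatory testing. 500-1,000 cells/well plated 5 hours before dosing; controls were DMSO and 2.3 µM bortezomib.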

[9] = qHTS of pediatric cancer cell lines to identify multiple opportunities for drug repurposing: Primary screen for BT-37 cells (AID 1347094); settings: BT-37 viability, CellTiter-Glo luminescence, 48 h; series mostly up to 57.3 µM;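 note: plate controls were DMSO for no effect and bortezomib for full effect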
Procedure, shortened: as §1

[10] = qHTS of pediatric cancer cell lines to identify multiple opportunities for drug repurposing: Primary screen for NB1643 cells (AID 1347099); settings: NB1643 neuroblastoma viability, CellTiter-Glo luminescence, 48 h; series mostly up to 46 µM; note: nearly all actives have a fitted effect of over 50% in size; note: potency is the fitted concentration of half-maximal effect;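 for activity change, negative = cytotoxic: plate controls were DMSO neutral control for no effect and bortezomib positive control for full effect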
Procedure, shortened: as §1

[11] = qHTS of pediatric cancer cell lines to identify multiple opportunities for drug repurposing: Primary screen for Rh41 cells (AID 1347108); settings: Rh41 rhabdomyosarcoma viability, CellTiter-Glo luminescence, 48 h; series mostly up to 46 µM;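 note: luminescence drop marks cytotoxic hits; nearly all actives have a fitted effect of over 70% in size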
Procedure, shortened: as §1

[12] = A High-Content qHTS Against Drug Library for the Identification of Small Molecules that Inhibit DYT1 Early Onset Primary Dystonia-Associated Cell Pathology (AID 1645839; calls by dose curve; note: potency is the fitted concentration of half-maximal effect); settings: HEK293 Flp-In EGFP-delE TorsinA, punctate imaging, 48 h; series mostly up to 46.1 µM
Procedure, shortened: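 Flp-In T-REx 293 cells with tetracycline-inducible EGFP-delE hTOR1A (WT EGFP-hTOR1A as reference), 800 cells/well; compound added with tetracycline, 48 h at 37 C. Fixed, permeabilized cells imaged; %pathology (punctate TorsinA) primary, cell count counterscreen.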

[13] = Drug repurposing screens with cells derived from glioblastoma tumor samples (AID 1345199); settings: GBM patient neurospheres viability, ATP luminescence, 48 h; Potency: tumour line A unless noted; activity, negative = cell killing: at 46 µM (top of the series), tumour line A unless noted; note: % is set by controls: 0 for no effect and ±100 for the full control effect; nearly all actives have a fitted effect of over 40% in size
Procedure, shortened: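 Four patient lines of CD133+ GBM neurospheres were screened at several concentrations; hits were retested in those lines plus three slower-growing GBM lines, using 48-hour treatment and ATP-based viability.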

[14] = target: Glutathione peroxidase 1 (Homo sapiens) (UniProt P07203); test: Primary qHTS Assay for Inhibitors of Recombinant Selenoprotein Glutathione Peroxidase 1 (GPX1) (AID 1845191); settings: recombinant GPX1, GR-coupled NADPH fluorescence, 15 min; activity, negative = inhibition: at 48.8 µM (top of the series); series mostly up to 48.8 µM; note: nearly all actives have a fitted effect of over 65% in size; note: potency is the fitted concentration of half-maximal effect
Procedure, shortened: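 GR-coupled assay: compounds preincubated 30 min at room temperature with GPX1, then reaction started with CHP; final 10 nM GPX1, 1 mM GSH, 0.5 mM CHP, 0.5 mM NADPH, 100 nM GR, 0.01% BSA, pH 7.5 Tris buffer. NADPH fluorescence (340/450 nm) read at 0 and 15 min.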

[15] = system: Zika virus NS2B-NS3 protease (linked construct); test: Primary screen NINDS Rhodamine qHTS for Zika virus inhibitors (AID 1347160); settings: purified NS2B-NS3 protease, Rhodamine110 substrate fluorescence; series mostly up to 57.1 µM; note: potency is the fitted concentration of half-maximal effect; nearly all actives have a fitted effect of over 55% in size
Procedure, shortened: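 In 10 mM Tris-HCl pH 8.0 containing 0.01% Tween 20, linked NS2B-NS3 protease (25 nM final) is exposed to test compounds for 15 min. Cleavage of 1.5 microM Rhodamine110 substrate is tracked by fluorescence over 15 min.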

[16] = target: Cytochrome P450 2D6 (Homo sapiens) (UniProt P10635); test: Cytochrome P450 family 2 subfamily D member 6 (CYP2D6) small molecule antagonists: luciferase biochemical (cell-free) qHTS assay (AID 1645840; active = well fitted curve in the direction sought with a large enough effect in the repeat runs; inconclusive = weak or mixed curves; inactive = no such curve, though single readings can be large; an effect the other way counts as inactive or inconclusive; note: potency is the fitted concentration of half-maximal effect; nearly all actives have a fitted effect of over 55% in size); settings: P450-Glo CYP2D6 enzyme, luciferin luminescence, 1 h; series mostly up to 57.4 µM
Procedure, shortened: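 P450-Glo luminescent screen: recombinant CYP2D6 enzyme–proluciferin substrate mix preincubated with compound 10 min at room temperature, then NADPH regeneration added for 1 h at room temperature. Detection reagent added for 20 min; luciferin light read as relative luminescence units.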

[17] = system: GB4; test: qHTS profiling for inhibitors of Plasmodium falciparum proliferation (AID 504749);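 note: 0% = DMSO vehicle and full inhibition = artemisinin control; nearly all actives have a fitted effect of over 60% in size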; settings: P. falciparum in erythrocytes, SYBR Green DNA, 72 h; series mostly up to 28.7 µM
Procedure, shortened: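 P. falciparum-infected erythrocytes (0.3% parasitemia, 2.5% hematocrit) incubated with compound 72 h at 37 C, 5% CO2. Parasite DNA detected by SYBR Green after lysis, overnight at room temperature; normalised to 0.29 uM artemisinin and DMSO.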
Tags give direction and shape of the fitted curve.

Sequence of UniProt P10635 (P10635 whole entry, looked up): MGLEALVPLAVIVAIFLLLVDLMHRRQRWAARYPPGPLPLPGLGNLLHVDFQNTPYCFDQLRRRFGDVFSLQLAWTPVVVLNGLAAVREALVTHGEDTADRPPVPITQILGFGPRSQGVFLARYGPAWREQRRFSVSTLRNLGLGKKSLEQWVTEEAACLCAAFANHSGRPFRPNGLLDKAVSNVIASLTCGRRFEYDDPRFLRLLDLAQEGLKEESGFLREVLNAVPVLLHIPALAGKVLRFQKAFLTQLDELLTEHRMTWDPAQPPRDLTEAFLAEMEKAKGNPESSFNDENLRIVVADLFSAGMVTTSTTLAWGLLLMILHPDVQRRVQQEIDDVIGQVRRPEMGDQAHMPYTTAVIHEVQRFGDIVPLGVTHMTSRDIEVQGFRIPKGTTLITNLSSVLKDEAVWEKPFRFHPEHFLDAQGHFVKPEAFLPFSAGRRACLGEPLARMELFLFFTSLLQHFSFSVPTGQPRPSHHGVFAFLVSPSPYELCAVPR
Sequence of UniProt P11712 (P11712 whole entry, looked up): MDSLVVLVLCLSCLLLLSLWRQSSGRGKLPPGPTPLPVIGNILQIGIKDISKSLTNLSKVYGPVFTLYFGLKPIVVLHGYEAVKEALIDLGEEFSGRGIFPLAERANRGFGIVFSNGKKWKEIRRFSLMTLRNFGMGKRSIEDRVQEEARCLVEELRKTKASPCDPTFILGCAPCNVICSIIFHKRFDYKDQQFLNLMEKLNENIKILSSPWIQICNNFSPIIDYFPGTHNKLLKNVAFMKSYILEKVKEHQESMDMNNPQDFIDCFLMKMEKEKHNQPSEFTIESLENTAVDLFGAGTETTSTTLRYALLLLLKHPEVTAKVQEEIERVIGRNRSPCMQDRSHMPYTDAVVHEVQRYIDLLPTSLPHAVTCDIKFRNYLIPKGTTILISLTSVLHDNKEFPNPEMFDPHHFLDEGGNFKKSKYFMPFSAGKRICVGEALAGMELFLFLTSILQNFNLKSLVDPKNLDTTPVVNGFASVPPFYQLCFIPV
Sequence of UniProt P07203 (P07203 whole entry, looked up): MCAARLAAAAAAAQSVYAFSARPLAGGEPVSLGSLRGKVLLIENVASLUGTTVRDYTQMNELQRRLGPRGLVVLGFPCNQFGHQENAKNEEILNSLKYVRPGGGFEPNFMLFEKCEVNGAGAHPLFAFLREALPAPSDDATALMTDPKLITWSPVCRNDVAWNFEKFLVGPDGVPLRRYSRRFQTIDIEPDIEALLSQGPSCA

## O=C(c1ccc(OC(F)F)c(C#Cc2ccccn2)c1)N1Cc2cccnc2C1
[1]
  Potency: inactive
[2]
  Potency: inconclusive: 23.8 µM [activator, single point]
[3]
  activity change, negative = cytotoxicity: inconclusive: -85.9%

## O=C([C@@H]1CCCN(c2ccc3[nH]c(C4(n5cc(Cl)cn5)CC4)nc3n2)C1)N1CCCC1
[3]
  Potency: inactive

## CNC(=O)c1ccc2c(c1)CCO[C@H]2CCN1CCN(c2ccc(OC)cc2)CC1
[1]
  Potency: inconclusive: 12 µM [inhibitor, partial curve]

## CCC[C@H](N[C@@H](C)C(=O)N1[C@H](C(=O)O)C[C@@H]2CCCC[C@@H]21)C(=O)OCC
[4]
  Potency: inconclusive: 33.5 µM [cytotoxic, single point]
[5]
  Potency: inactive
[6]
  Potency: inconclusive: 3.07 µM [cytotoxic, partial curve, poor fit]
[7]
  Potency: inconclusive: 24.6 µM [cytotoxic, single point]

## CO[C@H]1C[C@@H]2CC[C@@H](C)[C@@](O)(O2)C(=O)C(=O)N2CCCC[C@H]2C(=O)O[C@H]([C@H](C)C[C@@H]2CC[C@H](n3cnnn3)[C@H](OC)C2)CC(=O)[C@H](C)/C=C(\C)[C@@H](O)[C@@H](OC)C(=O)[C@H](C)C[C@H](C)/C=C/C=C/C=C/1C
[2]
  Potency: inconclusive: 3.67 µM [activator, single point]

## Cc1ccc(Cl)c(Nc2ccccc2C(=O)O)c1Cl
[8]
  Potency: inconclusive: 23.7 µM [cytotoxic, single point]
[9]
  Potency: inactive
[5]
  Potency: inconclusive: 33.5 µM [cytotoxic, single point]
[6]
  Potency: inconclusive: 15.4 µM [cytotoxic, partial curve, poor fit]
[10]
  Potency: inconclusive: 33.5 µM [cytotoxic, single point]
[11]
  Potency: inactive
[12]
  Potency: inconclusive: 22.4 µM [inhibitor, single point]
[1]
  Potency: inconclusive: 27.5 µM [inhibitor, single point]
[3]
  Potency: inactive
[13]
  Potency: inactive

## Cc1cc(OCCCS(C)(=O)=O)cc(C)c1-c1cccc(COc2ccc(C3=CC(=O)NS3=O)cc2)c1 (stereo unspecified)
[14]
  Potency: inconclusive: 9.04 µM [inhibitor, partial curve]

## CC1C(=O)CC2C3C(O)CC(C(=O)O)C12CC3(C)C (stereo unspecified)
[2]
  Potency: inactive

## CCNC(=O)N1CCCN(c2ccc(C(=O)NCCc3ccc(Cl)cc3Cl)cc2NC(=O)c2cccc(Cl)c2)CC1
[1]
  Potency: inconclusive: 23.9 µM [inhibitor, single point]

## COc1ccc(C2=NC(c3ccc(Cl)cc3)C(c3ccc(Cl)cc3)N2C(=O)N2CCNC(=O)C2)c(OC(C)C)c1 (stereo unspecified)
[15]
  Potency: inconclusive: 0.0794 µM [inhibitor, full curve, poor fit]

## CCN1C(=O)c2ccccc2C1Nc1ccc(OCCN2CCCCC2)cc1 (stereo unspecified)
[10]
  Potency: inactive
[16]
  Potency: inconclusive: 27.5 µM [inhibitor, single point]
[1]
  Potency: inactive

## CC(=O)O[C@@H]1C2=C(O)C(=O)[C@](C)(OC(C)=O)C(=O)C2=CO[C@@]12O[C@@H](C)CC[C@H]2OC(C)=O
[2]
  Potency: inconclusive: 14.6 µM [activator, partial curve, poor fit]

## COC(=O)C1=CO[C@@H](O[C@@H]2O[C@H](CO)[C@@H](O)[C@H](O)[C@H]2O)/C(=C\CO)[C@@H]1CC(=O)OCCc1ccc(O)cc1
[2]
  Potency: inconclusive: 18.4 µM [activator, partial curve, poor fit]

## CC(C)[C@@H](C)/C=C/[C@@H](C)[C@H]1CC[C@H]2C3=CC=C4C[C@@H](O)CC[C@]4(C)C3=CC[C@]12C
[2]
  Potency: inconclusive: 26.7 µM [activator, single point]

## CC(=O)C1(C)CCC2C3C=C(C)C4=CC(=O)CCC4(C)C3CCC21C (stereo unspecified)
[2]
  Potency: inactive

## NCC(=O)O
[11]
  Potency: inactive
[3]
  Potency: inconclusive: 15.8 µM [cytotoxic, single point]

## CC(=O)Nc1cccc(-c2csc(Nc3cc(C)ccn3)n2)c1
[14]
  Potency: inconclusive: 12.8 µM [inhibitor, partial curve]

## CO/N=C(/C(=O)N[C@@H]1C(=O)N2C(C(=O)O)=C(CSC(=O)c3ccco3)CS[C@H]12)c1csc(N)n1
[15]
  Potency: inconclusive: 25.1 µM [inhibitor, single point] and active: 25.1 µM
[14]
  Potency: active: 8.06 µM and active: 7.18 µM
[2]
  Potency: inconclusive: 26.7 µM [activator, partial curve, poor fit]

## COc1cc(O)cc2c1C(=O)OC(C)CCCCCCC2 (stereo unspecified)
[15]
  Potency: active: 14.1 µM

## O=C(c1cc2c(cc1F)OC(c1ccc(F)cc1)(c1ccc(Cl)cc1Cl)O2)N1CCOCC1 (stereo unspecified)
[16]
  Potency: inconclusive: 4.25 µM [inhibitor, full curve]
[2]
  Potency: inconclusive: 2.67 µM [activator, full curve, poor fit]

## CC1=C(c2ccc(NC(=O)c3c(F)cccc3F)cc2)CN(c2nccs2)CC1
[1]
  Potency: inconclusive: 37.9 µM [inhibitor, partial curve, poor fit]
[14]
  Potency: inconclusive: 20.2 µM [inhibitor, single point]

## O=C(O)Cc1ccc(CCNS(=O)(=O)c2ccc(Cl)cc2)cc1
[4]
  Potency: inconclusive: 0.0299 µM [cytotoxic, full curve, poor fit]
[9]
  Potency: inactive
[12]
  Potency: inactive
[1]
  Potency: inconclusive: 24.5 µM [inhibitor, single point]
[17]
  Potency: inactive

## O=C(CCCCc1ccc2ccccc2c1)C(F)(F)F
[16]
  Potency: inconclusive: 23.9 µM [inhibitor, single point]

## C[C@H](Nc1cc2c(-c3ccc4c(c3)OCO4)noc2cn1)c1ccccc1
[16]
  Potency: inconclusive: 3.38 µM [inhibitor, full curve, poor fit]

## CN1CCN(C2=Nc3ccccc3Nc3ccc(OS(=O)(=O)C(F)(F)F)cc32)CC1
[14]
  Potency: inactive
[2]
  Potency: inactive

## C=C(C)C(=O)OC1[C@@H]2C(=C)C(=O)O[C@@H]2C[C@@H](C)[C@@H]2C=CC(=O)[C@@]12C (stereo partly specified)
[3]
  Potency: inactive

## O=C(O)c1cccc(-c2ccc(-c3cn(C(=O)N4CCCCC4Cc4ccccc4)nn3)cc2)c1 (stereo unspecified)
[15]
  Potency: active: 3.98 µM
[16]
  Potency: inconclusive: 37.9 µM [inhibitor, partial curve, poor fit]

## C=CC(C)(C)C12CC3C(=O)N4C(CC5(C(C)(C)C=C)c6ccccc6NC45)C(=O)N3C1Nc1ccccc12 (stereo unspecified)
[15]
  Potency: inconclusive: 11.2 µM [inhibitor, single point]
[14]
  Potency: inconclusive: 8.81 µM [inhibitor, partial curve, poor fit]
